The record followed here is PubChem BioAssay AID1745853 (National Center for Advancing Translational Sciences (NCATS), 2022).

Some of the results follow. The main result of the screen is listed elsewhere. These columns were measured beside it and carry no call. Peptide text beside a SMILES is read from it.

Holding throughout (assay): Primary Screen for Target Class Profiling of Small Molecule Inhibitors of Methyltransferases
Experiment [1] has as its target Glycine N-methyltransferase (Homo sapiens) (UniProt Q14749). The settings on record: purified enzyme, MTase-Glo SAH luminescence; measured here: GNMT inhibition; at 40 µM; stronger effect = lower value. In outline:
(§1)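 Each enzyme was assayed with SAM and its substrate. SAH formation detected by MTase-Glo luminescence; single-point 40 uM screen[…].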

Experiment [2] addresses Guanidinoacetate N-methyltransferase (Homo sapiens) (UniProt Q14353). As to conditions: purified enzyme, MTase-Glo SAH luminescence; measured here: GAMT inhibition; at 40 µM; stronger effect = lower value. In outline:
as §1

Experiment [3] addresses Histamine N-methyltransferase (Homo sapiens) (UniProt P50135). The settings on record: purified enzyme, MTase-Glo SAH luminescence; measured here: HNMT inhibition; at 40 µM; stronger effect = lower value. In short, it runs like this: as §1
Experiment [4] concerns the target Nicotinamide N-methyltransferase (Homo sapiens) (UniProt P40261). As to conditions: purified enzyme, MTase-Glo SAH luminescence; measured here: NNMT inhibition; at 40 µM; stronger effect = lower value. In outline: as §1
In experiment [5] the target is Phenylethanolamine N-methyltransferase (Homo sapiens) (UniProt P11086). As to conditions: purified enzyme, MTase-Glo SAH luminescence; measured here: PNMT inhibition; at 40 µM; stronger effect = lower value. In outline:
as §1
On the % scale 0 is the no-effect control and ±100 the full control effect.

As for `CC1CCCC(NC(=O)C2(C)Cn3c(ccc3-c3ccco3)C(=O)N2Cc2ccc(F)cc2)C1C` (stereo not given), the activity change, negative = inhibition in experiment [1] is -0.164%; in experiment [2] it was 0%; in experiment [3], 3.75%; in experiment [4], -5.07%; in experiment [5], 1.7%.

Take `COc1cccc(CN2C(=O)c3cc4oc(C)cc4n3CC2(C)C(=O)NC2CCCCCC2)c1` (stereo not given): the activity change, negative = inhibition is -7.52% in experiment [1]; 2.42% in experiment [2]; -6.82% in experiment [3]; -12.2% in experiment [4]; -9.7% in experiment [5].

On to `O=C(O)c1ccc(S(=O)(=O)N(Cc2ccc(OC(F)(F)F)cc2)c2ncc(C(F)(F)F)cc2Cl)cc1`, for which the activity change, negative = inhibition was -2.45% in experiment [1]; 15.1% in experiment [2]; 10.3% in experiment [3]; -16.4% in experiment [4]; 3.18% in experiment [5].

For the molecule `COc1ccccc1CNC(=O)c1cc2n(n1)CC(C)(C(=O)NCc1ccc(F)cc1)N(C)C2=O` (stereo not given), the activity change, negative = inhibition in experiment [1] was -0.004%; in experiment [2] it was 0.935%; in experiment [3] it was -0.881%; in experiment [4] it was -1.27%; in experiment [5], 0.377%.

For `CCc1cc2c(cc3n2CC(C)(C(=O)NC2CCCCCC2)N(Cc2ccc(C)cc2)C3=O)s1` (stereo not given), the activity change, negative = inhibition turned out to be 2.96% in experiment [1]; 2% in experiment [2]; 7.85% in experiment [3]; 2.23% in experiment [4]; 1.97% in experiment [5].

On to `COC(=O)N(C)Cc1cccc(N2CCN(S(=O)(=O)c3cccc4ccccc34)CC2)c1F`, for which the activity change, negative = inhibition was -0.697% in experiment [1]; 0.992% in experiment [2]; 2.19% in experiment [3]; 1.34% in experiment [4]; -0.928% in experiment [5].

In the case of `Cc1ccc(NC(=O)Cn2nc3n(C)c(=O)c4ccc(C(=O)NC5CCCC5)cc4n3c2=O)c(Cl)c1`, the activity change, negative = inhibition was found to be 1.16% in experiment [1]; 0% in experiment [2]; 5.63% in experiment [3]; 2.62% in experiment [4]; 2.57% in experiment [5].

As for `O=C(N[C@H]1C[C@@H](CO)N(CC2CCCCC2)C1)c1cccnc1`, the activity change, negative = inhibition in experiment [1] was -7.32%; in experiment [2], -7.68%; in experiment [3], -7.23%; in experiment [4], -9.68%; in experiment [5], -8.41%.

As for `CC1(C)SCCN(S(=O)(=O)c2ccc(Oc3ccncc3)cc2)[C@H]1C(=O)NO`, the activity change, negative = inhibition was 4.27% in experiment [1]; -3.85% in experiment [2]; 7.27% in experiment [3]; -11.3% in experiment [4]; 3.16% in experiment [5].

Regarding `CN(C)C[C@H]1O[C@H](Cc2cc(CN(C)Cc3ccccc3)on2)CC[C@@H]1O`, the activity change, negative = inhibition was 0.03% in experiment [1]; 2.89% in experiment [2]; -2.58% in experiment [3]; -2.03% in experiment [4]; 12.7% in experiment [5].

As for `CCOc1ccc(N(CC)C(=O)c2ccc3c(c2)N(S(C)(=O)=O)CC3)cc1`, the activity change, negative = inhibition is -2.9% in experiment [1]; -0.291% in experiment [2]; -3.83% in experiment [3]; -3.64% in experiment [4]; 1.14% in experiment [5].

For `COCCN(Cc1nccs1)Cc1cn[nH]c1-c1ccc(F)cc1`, the activity change, negative = inhibition was -11.6% in experiment [1]; 2.25% in experiment [2]; 0.892% in experiment [3]; -4.64% in experiment [4]; -2.58% in experiment [5].

Turning to `COc1ccc2c(C)c(C(=O)N3CCCCC3c3cc(C)on3)oc2c1` (stereo not given), the activity change, negative = inhibition in experiment [1] was -5.2%; in experiment [2], -1.24%; in experiment [3], 1.06%; in experiment [4], -8.94%; in experiment [5], -3.91%.

On to `CCCNC(=O)N1Cc2c(sc3c2CCCC3)-n2cccc2C1c1cccs1` (stereo not given), for which the activity change, negative = inhibition in experiment [1] was -9.35%; in experiment [2] it was -2.2%; in experiment [3], -0.574%; in experiment [4] it was -14.6%; in experiment [5], -1.32%.

For `CC(=O)/C=C/C1(O)C(C)=CC(=O)CC1(C)C` (stereo not given), the activity change, negative = inhibition is -0.597% in experiment [1]; 3.6% in experiment [2]; 2.92% in experiment [3]; -9.04% in experiment [4]; 5.59% in experiment [5].

In the case of `CC(=O)NC(Cc1ccccc1)C(=O)NC(C(=O)O)C(C)C` (stereo not drawn) (Ac-Phe-Val-OH; configuration not given here), the activity change, negative = inhibition in experiment [1] was -2.88%; in experiment [2], -5.33%; in experiment [3], 7.59%; in experiment [4] it was -17.5%; in experiment [5], -7.64%.

Regarding `Cc1cc(CN)cc(C)c1NC(=O)c1ccc(-c2cc(Cl)ccc2Cl)o1`, the activity change, negative = inhibition in experiment [1] was -16.9%; in experiment [2], -0.389%; in experiment [3], -43.9%; in experiment [4], -21.7%; in experiment [5] it was -10.3%.

Regarding `O=C(c1ccc(Br)o1)N1C[C@@H](CO)[C@H](c2ccncc2)C1`, the activity change, negative = inhibition in experiment [1] was -3.95%; in experiment [2] it was -2.17%; in experiment [3], 2.79%; in experiment [4] it was -4.12%; in experiment [5] it was -2.5%.

`COc1ccc2cc3n(c2c1)CC(C)(C(=O)NC1CCCCC1)N(C(C)c1ccccc1)C3=O` (stereo not given): the activity change, negative = inhibition was 1.77% in experiment [1]; 0% in experiment [2]; 2.11% in experiment [3]; -4.22% in experiment [4]; -4.93% in experiment [5].

As to `[N-]=[N+]=Nc1ccc(C(=O)CSC[C@H](NC(=O)CC[C@H](N)C(=O)O)C(=O)NCC(=O)O)cc1`, the activity change, negative = inhibition is -12.1% in experiment [1]; 10.7% in experiment [2]; 5.67% in experiment [3]; -11.8% in experiment [4]; 1.42% in experiment [5].

`CC1(C(=O)NC2CCCCC2)Cn2c(nc3ccccc32)C(=O)N1Cc1cccs1` (stereo not given): the activity change, negative = inhibition in experiment [1] is -3.68%; in experiment [2] it was 1.84%; in experiment [3] it was 2.19%; in experiment [4], -4.09%; in experiment [5] it was -1.85%.

On to `Cc1ccc(CN2C(=O)c3ccc(-c4ccco4)n3CC2(C)C(=O)NC2CCCCC2)o1` (stereo not given), for which the activity change, negative = inhibition in experiment [1] was -4.46%; in experiment [2], 0.062%; in experiment [3] it was 6.54%; in experiment [4], -7.11%; in experiment [5] it was 1.76%.

Take `CCOC(=O)N1CCC(NC)CC1`: the activity change, negative = inhibition in experiment [1] was -6.52%; in experiment [2], -7.27%; in experiment [3] it was -3.88%; in experiment [4], -9.04%; in experiment [5], -13%.

With `O[C@H]1[C@H](NCc2ccco2)[C@H]2CO[C@H](O2)[C@@H]1N1CCC(Cc2ccccc2)CC1`, the activity change, negative = inhibition was -1.09% in experiment [1]; -1.24% in experiment [2]; -2.21% in experiment [3]; -1.74% in experiment [4]; -1.28% in experiment [5].

As for `CCn1c(=O)n(CC)c2cc(S(=O)(=O)N3CCN(c4ccccc4)CC3)ccc21`, the activity change, negative = inhibition in experiment [1] was 14.7%; in experiment [2] it was 3.67%; in experiment [3], 13.2%; in experiment [4], 8.23%; in experiment [5], 9.97%.

As to `COc1cccc(C(=O)N2CCC(C(NC(=O)CC(C)C)C(=O)NCC(C)C)CC2)c1` (stereo not given), the activity change, negative = inhibition in experiment [1] was -4.18%; in experiment [2], -0.693%; in experiment [3], 0.791%; in experiment [4] it was 0.883%; in experiment [5] it was 12.3%.

`CC1(C(=O)NC2CCCCCC2)Cn2nc(-c3ccco3)cc2C(=O)N1CCc1ccc(Cl)cc1` (stereo not given): the activity change, negative = inhibition in experiment [1] is -14.4%; in experiment [2], 4.22%; in experiment [3], -7.65%; in experiment [4], -12.8%; in experiment [5], -5.42%.

Regarding `c1csc(CN2CCC(Oc3ccccc3-c3nc(-c4cnccn4)no3)C2)c1` (stereo not given), the activity change, negative = inhibition in experiment [1] was -15.5%; in experiment [2] it was -4.17%; in experiment [3] it was -24.1%; in experiment [4], -26.6%; in experiment [5], -7.43%.
